This is one part of the list. The data describe in vitro nicking of single-stranded DNA by Rep domains (3 µM enzyme, 1 h, 37 °C); shown is the middle of each 90-letter strand. The score is log2 (uncut reads / reads without enzyme); strong cutting gives strongly negative numbers. There is no active / inactive call. Counts are relative to all reads; where an enzyme cuts many sequences, the uncut ones exceed 0.
system: T1, Rep nickase domain of wheat dwarf virus; assay: uncleaved DNA left, log2 of reads against the no-enzyme library (log2 ratio); higher = less cleavage (more negative = more Rep cleavage of the k-mer); sequences stand for … in CTCGTCCG…ACCGGAGA
T1 sequence (protein, residues 1-137, tag omitted): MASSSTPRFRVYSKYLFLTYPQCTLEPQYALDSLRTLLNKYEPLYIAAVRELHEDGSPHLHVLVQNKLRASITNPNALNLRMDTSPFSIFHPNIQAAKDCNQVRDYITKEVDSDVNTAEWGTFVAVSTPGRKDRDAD
Protocol: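 A pool of 90-nt single-stranded DNAs with seven random bases just before the constant AC of the nick site (name = the seven bases) was cut by 3 µM recombinant His6-SUMO-tagged Rep nickase domain (300 nM DNA, 50 mM HEPES pH 8.0, 50 mM NaCl, 1 mM MnCl2, 1 h, 37 °C, three replicates). Uncut DNA was amplified and sequenced.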

Sequence	uncleaved DNA left (log2)
GGATCTG	0.056
TAATATC	-3.88
GCGTGGC	-0.049
CACAAAT	0.192
GTCGATT	0.0515
AAACAGG	0.178
CAGGTCA	0.157
ACCATCA	0.146
CCCGATT	-0.144
CCTCCGA	-0.0597
AAGTAAC	-0.031
GAATTGG	-0.0304
CTATACT	-1.66
CGTACTT	0.333
GCGCAGC	-0.00919
TCACGTC	-0.163
GATAAGT	0.013
AACAAAG	-0.167
AGTGTCC	0.0297
GGTTTGA	0.135

Sequence	uncleaved DNA left (log2)
TTGCAGT	-0.0908
AGTACTC	0.11
ATTCAGC	0.0129
GCGTTAC	0.12
GTCTACG	0.031
ACTAACC	0.0155
TAAAGAT	-1.47
TTAACGA	0.0411
TGGTCAG	0.0565
GTTCTGA	0.00365
TCTCCAA	-0.0527
ACCGCAT	-0.14
TCCGCGT	-0.111
CCCAGAC	-0.0198
AGGAATA	0.262
TCCCGCA	-0.174
CGGAAAG	0.137
ATCTGCC	0.00136
ACCGTAA	-0.0468
ACACAAC	0.0556
